# The whole screen tested about 360,000 compounds, of which about 6,000 (1.7%) were called active. Inconclusive means that the source gave no clear call. Such entries were picked first, then a sample of the others. Calls come from the whole dose curve; as a rule, active = well fitted cell-killing curve with a large enough effect; inconclusive = small, poorly fitted or top-dose-only effect, or effect the other way; inactive = flat fitted curve, though single readings scatter. Potencies of inconclusive entries are left out as doubtful fits.
# Experiment: qHTS for induction of synthetic lethality in tumor cells producing 2HG: qHTS for the HT-1080-NT fibrosarcoma cell line;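 note: NT is the 2HG producing partner of a matched IDH1 knockdown line; nearly all actives have a fitted effect of over 55% in size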;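 for activity, negative = less viability: 0% = DMSO-treated cells and -100% = media-only wells without cells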
# Details: HT-1080-NT fibrosarcoma viability, CellTiter-Glo ATP luminescence, 48 h; activity, negative = less viability: at 46.1 µM (top of the series) unless noted
# In short: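 Viability of the 2HG-overproducing fibrosarcoma line after 48 hours of compound exposure at 37 degrees C was determined by luminescence with CellTiter-Glo, and concentration-effect curves were then fitted and categorized.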
# Potency is the fitted concentration of half-maximal effect; tags give direction and shape of the fitted curve.
SMILES,Potency,"activity, negative = less viability"
Cc1cccc2cc(C#N)c(NCCCNS(=O)(=O)c3ccc(Cl)cc3)nc12,"inconclusive [cytotoxic, single point]",–
O=C(Nc1ncc(Cc2ccccc2Cl)s1)C1=NCCN1,"inconclusive [cytotoxic, single point]",–
COc1ccc(Cl)cc1NC(=O)Cn1c(=O)oc2ccccc21,inactive,–
CCOc1ccccc1CNC(=O)C1CCN(C(=O)c2sccc2-n2cccc2)CC1,inactive,–
CCN1CCN(CCNC(=O)c2ccc(/C=C3/Sc4ccccc4N(Cc4ccccc4C)C3=O)cc2)CC1,active: 14.6 µM,–
Cc1ccc(Cn2c(C(=O)O)cc3sccc32)cc1,inactive,–
Cc1c(Cc2ccccc2)c(=O)oc2c(C)c(OCC(=O)NCC3CCC(C(=O)O)CC3)ccc12 (configuration not stated),inactive,–
Cc1cccc(C(=O)N2CCC(=O)N(C(COCc3cccc(C(F)(F)F)c3)Cc3ccccc3)CC2)c1 (configuration not stated),"inconclusive [cytotoxic, single point]",–
O=C(Nc1cc(S(=O)(=O)N2CCCCC2)ccc1Cl)c1ccccc1NS(=O)(=O)c1ccc(F)cc1,active: 0.58 µM,–
O=C(N/N=C/c1cc([N+](=O)[O-])ccc1O)c1ccc(COc2ccc3c(c2)CCC3)o1,"inconclusive [cytotoxic, full curve]",–
CCCN(CCC)S(=O)(=O)c1ccc(C(=O)Nc2nc3c(s2)CCc2ccccc2-3)cc1,active: 18.4 µM,–
Cc1ccc(Nc2nc(-c3ccccc3)c(CC(=O)O)s2)cc1,"inconclusive [cytotoxic, single point]",–
N/C(=N\OC(=O)Cc1ccccc1[N+](=O)[O-])c1cccc(Br)c1,"inconclusive [rising, single point]",–
O=C(OCC(=O)c1ccc(Br)s1)c1ccc(O)cc1,inactive,–
CCOC(=O)NC(=O)c1cn(C(CC)CO)c(=O)[nH]c1=O (configuration not stated),"inconclusive [rising, partial curve, poor fit]",–
COC(=O)[C@]12CCCCC=C1N(Cc1ccc(Cl)cc1Cl)C(=O)[C@H](CC(=O)NCCCCc1ccccc1)C2,"inconclusive [cytotoxic, single point]",–
Nc1c2c(nc3ccccc13)N(C1CCCCC1)CC2,"inconclusive [cytotoxic, single point]",–
O=C(O)c1ccc(Cl)c(NC(=S)NC(=O)c2ccccc2[N+](=O)[O-])c1,inactive,–
CSCC(C)N1CCC(N2CCC(C(=O)NCc3ccccn3)CC2)CC1 (configuration not stated),inactive,–
Cc1cc(OCC(=O)Nc2cc(-c3nn4c(C)nnc4s3)ccc2C)ccc1Cl,inactive,–
Cn1cc([N+](=O)[O-])c(C(=O)Nc2ccc(C3CCCCC3)cc2)n1,active: 23.1 µM,–
COc1ccc(-n2cc(CNCCc3nc(C)cc(C)n3)c(-c3ccccc3Cl)n2)cc1,active: 16.4 µM,–
CO/N=C/CC(=O)Nc1ccc(F)cc1F,–,inconclusive: 31.5%
O=C(Nc1cccnc1)c1sc(Nc2ccccc2F)nc1-c1ccccc1,"inconclusive [cytotoxic, single point]",–

SMILES,Potency,"activity, negative = less viability"
CCOC(=O)c1cnc2ccc(OC)cc2c1Nc1ccc2c(c1)OCCO2,"inconclusive [cytotoxic, single point]",–
O=C(OCc1cn([C@H]2CN(CC3CCCCC3)[C@@H](c3ccc(Cl)cc3)C[C@@H]2O)nn1)c1ccccc1,"inconclusive [cytotoxic, single point]",–
COc1ccccc1Cc1c(-c2ccc(OC)c(OC)c2)nc2ccc(Br)cn12,"inconclusive [cytotoxic, partial curve, poor fit]",–
O=C(N/N=C/c1cccs1)c1n[nH]c2c1CCC2,active: 7.31 µM,–
O=S(=O)(Nc1ccc(-c2nc3cccnc3s2)cc1)c1cccs1,"inconclusive [rising, partial curve, poor fit]",–
Cn1cc(/C=N/NC(=O)c2cccc([N+](=O)[O-])c2)c2ccccc21,"inconclusive [cytotoxic, single point]",–
CN1CCN(c2ccc(CNC(=O)C3Cc4c(-c5ccccc5Oc5ccccc5)ccnc4O3)cc2)CC1 (configuration not stated),"inconclusive [cytotoxic, single point]",–
CCOc1ccccc1-c1cnc(NC)cn1,"inconclusive [rising, single point]",–
CCOC(=O)C1=CN(Cc2cccc(F)c2)S(=O)(=O)N(C)C1CCc1ccccc1 (configuration not stated),inactive,–
Cc1ccc(C)c(-n2c(-c3csc(C)c3)n[nH]c2=S)c1,"inconclusive [cytotoxic, partial curve]",–
CN1CCC(OC(=O)c2cc3cc(Cl)cc(Cl)c3oc2=O)CC1,"inconclusive [cytotoxic, single point]",–
N/C(=N\OC(=O)Nc1ccccc1)c1ncc([N+](=O)[O-])s1,"inconclusive [cytotoxic, single point]",–
Cc1csc(=O)n1CC(=O)OCC(=O)c1c(N)n(CC(C)C)c(=O)n(C)c1=O,inactive,–
Cc1ccc(S(=O)(=O)N/N=C/c2ccc(OCC(=O)NC(C)C)cc2)cc1,inactive,–
N=c1c2c(n(Cc3ccc(Cl)cc3)c3c1CCC3)CCC2,active: 5.01 µM,–
COc1ccc(-c2csc(N(CCCN(C)C)C(=O)c3ccc(C(C)(C)C)cc3)n2)cc1,"inconclusive [cytotoxic, single point]",–
COc1ccc(C2=NOC(Cn3nc(-c4ccccc4)cc3C(=O)NCc3cccs3)C2)cc1 (configuration not stated),inactive,–
CCC(CC(C)(C)O)C(=O)NNC(=S)Nc1ccccc1 (configuration not stated),–,inconclusive: 35.7%
Cc1ccc(CNC(=O)CSc2nc3n[nH]c(C)c3c(=N)n2-c2cccc(C)c2)cc1,"inconclusive [cytotoxic, single point]",–
C/C(N=Nc1nc2ccccc2s1)=N\Nc1ccccc1O,active: 13 µM,–
O=C(Nc1ccc(S(=O)(=O)N2CCCCC2)cc1)c1ccncc1,inactive,–
CC(=O)c1cccc(NS(=O)(=O)c2ccc(N/C=C/C(=O)c3ccc(F)cc3)cc2)c1,"inconclusive [cytotoxic, single point]",–
O=C(Nc1ccccc1C(=O)N/N=C/c1ccncc1)c1ccccc1,active: 20.6 µM,–
Cc1ccc(OCc2cc(C(=O)N(C)CCc3nc4ccccc4[nH]3)no2)cc1C,"inconclusive [cytotoxic, single point]",–

SMILES,Potency,"activity, negative = less viability"
COc1cccc(OC)c1/C(O)=C(\C#N)c1nc2ccccc2[nH]1,active: 17.8 µM,–
NC(=S)N/N=C/c1ccccc1OCCSc1ccc(Cl)cc1,"inconclusive [cytotoxic, single point]",–
CCOc1ccc2nc(NC(=O)CN3CCC(n4nnc5cc(F)ccc54)CC3)sc2c1,"inconclusive [cytotoxic, single point]",–
Cc1cc(Cl)c(C(=O)Nc2cccc(C(F)(F)F)c2)c(C)n1,inactive,–
O=C(CNc1ccc2ccccc2c1)N/N=C/c1ccc(OC(=O)/C=C/c2ccco2)cc1,"inconclusive [cytotoxic, partial curve]",–
CCOC(=O)N1CCN(C(=O)c2ccccc2N(Cc2ccccc2)S(=O)(=O)c2ccc(OC)cc2)CC1,active: 3.26 µM,–
C/C(=N\OC(=O)c1ccc(Cl)cc1)c1nccs1,inactive,–
O=C(Nc1ccc(S(=O)(=O)Nc2nccs2)cc1)c1cc(-c2ccccc2)nc2ccccc12,"inconclusive [cytotoxic, partial curve]",–
COCCN(C(=O)CNC(=O)c1cccs1)C(C(=O)NC(C)(C)C)c1ccccc1 (configuration not stated),inactive,–
CN(CC(=O)Nc1ccccc1C(F)(F)F)C(=O)COc1ncnc2sccc12,inactive,–
CCCCCCC[C@@H](C/C=C/CCC(=O)N(C)C/C(=C/Cl)C/C(=C\C(=O)N1C[C@H](O)CC1=O)OC)OC,active: 23.1 µM,–
COc1ccc(C(=O)NC(=S)NNC(=O)c2c(-c3ccccc3)noc2C)cc1OC,"inconclusive [cytotoxic, full curve, poor fit]",–
c1cncc(CNc2cccc(-c3nc4ccccc4[nH]3)c2)c1,"inconclusive [cytotoxic, single point]",–
C=C(CCC(=O)c1ccccc1)C(=O)c1ccccc1,active: 25.9 µM,–
Cc1nc(C(=O)Nc2cccc(Cl)c2Cl)nn1-c1cc(OC(C)C)c(Cl)cc1Cl,inactive,–
Cc1ccc(SCC(=O)NCc2ccc(F)cc2)cc1,inactive,–
Cc1ccc(Nc2c(-c3ccccn3)nc3ccc(C)cn23)cc1,"inconclusive [cytotoxic, partial curve]",–
C/C=C/c1ccc(OCC(=O)Nc2ccncc2)c(OC)c1,inactive,–
CCOC(=O)c1ccc(NC(=O)c2ccc(C)c(S(=O)(=O)N3CCOCC3)c2)cc1,"inconclusive [cytotoxic, single point]",–
CCN1/C(=C/c2ccc3cc(C)ccc3[n+]2CC)Sc2cc(C)ccc21,active: 16.4 µM,–
CC1CCN(C(=O)C2CCN(C(=O)c3cc4sccc4n3Cc3ccc(F)cc3)CC2)CC1,"inconclusive [cytotoxic, partial curve]",–
CCCCCOc1ccc(C(=O)NCC(=O)NCC(=O)OCC)cc1,"inconclusive [cytotoxic, single point]",–
O=C(Nc1cc(C(F)(F)F)ccc1F)C1Cc2c(-c3ccccc3Oc3ccccc3)ccnc2O1 (configuration not stated),"inconclusive [cytotoxic, single point]",–
COc1ccc(C(=O)c2c(C)oc3ccc(O)c(CN4CCOCC4)c23)cc1,inactive,–

# — PubChem BioAssay AID686970 (National Center for Advancing Translational Sciences (NCATS), 2013)
